The other results are listed elsewhere or left out.
B1: ENSG00000198589:be:win_6151|CDS|ENSG00000198589|bound_else_gene|NA|bound_elsewhere_windowed (ssRNA)
RNA: GGGAGUUCUACAGUCCGACGAUCACUCUGUCAUCCGUGGAUGAGAAAGAUUUAGAGAAUCUUGCCGGUCCUGUUAGCCUGAGCACACCAGCUCAGCUUGUGGCCCCCUCUGUUGUAGUAAAGGGCACUCUUUCUGUCACCUCCCAACAGAGGAUUGAGCAUCA
B2: ENSG00000170502:stop:overlap|stop_codon|ENSG00000170502|stop_codon|NA|stop_codon (ssRNA)
RNA: GGGAGUUCUACAGUCCGACGAUCUGGCUGAGAAACGAGAUGCACACUGGAGCGAGGACUCUGAAGCUGACUGCCAUGCGUUGUAGCUGAUGGUCUCCGUGUAAGCCAAAGGCCCACAGAGGAGCAUAUACUGAAAAGAAGGCACAACAGAGGAUUGAGCAUCA
B3: chr1:35359206:35359314:+|CDS|ENSG00000146463|unk|FALSE|bound_elsewhere (ssRNA)
RNA: GGGAGUUCUACAGUCCGACGAUCAAAGACUUUCCUAAACAAUUUGAUCAGGUUUCUGUCUUUAAAUCAAUACGGAAAGAUUUUAGUCUAGUAAGAGAAAACAGCAAAGAGACAUUUUCUGGAAAGGAGAAAAAUAGAGACCUACAACAGAGGAUUGAGCAUCA
B4: chr9:15171111:15171212:-|3pUTR|ENSG00000155158|unk|total|mutant (ssRNA)
RNA: GGGAGUUCUACAGUCCGACGAUCCUGCUUUAAAUGAUAUGUAAAAUAUCAAUAAUUUUUACACUUAAGAUGUUGGUAAGACCCCGUUUUCUAAUCUCUCCCGCACUGUGAUGUCUCCUUGCCGAUAAUCUGGACCUUGCUCCGCAACAGAGGAUUGAGCAUCA
B5: chr1:110340924:110341033:+|CDS|ENSG00000162775|unk|FALSE|unique (ssRNA)
RNA: GGGAGUUCUACAGUCCGACGAUCUGCUGCCUGGACCCAUAUGCGGGGCUUCCCACUUGGUGGCCCAGAUCGACGCCUUAGAGUAGACUUUGCCGACACCGAACAUCGUUACCAGCAGCAGUAUCUGCAGCCUCUGCCCUUGACCAACAGAGGAUUGAGCAUCA
B6: chr9:35056615:35056731:-|3pUTR|ENSG00000165280|msi1|total|mutant (ssRNA)
RNA: GGGAGUUCUACAGUCCGACGAUCCCCUAUCCAACCUGGGCCGGUGGGCCGGGGCCACAGUUGCUGGAUGUUUAUACCGAGAGCCGGUUGAUUUAUUUUACAUGCUUUUGAGUUAAUGUUGGAAAACUAAUCACAAGCAGUUUCCAACAGAGGAUUGAGCAUCA
B7: ENSG00000086827:stop:overlap|stop_codon|ENSG00000086827|stop_codon|NA|stop_codon (ssRNA)
RNA: GGGAGUUCUACAGUCCGACGAUCUAAUUCGUGCCUUGUUUCAGAACACAGAAAGAAGAGCAGCUGCCCUUGCUAAAAUUAAAUAGCUCCAUCUUCUUAAGAAAGCUAUGUCUUGAAUAUGUGGAUUCUUCCCUUGGCAUAAUUCAACAGAGGAUUGAGCAUCA
B8: chr2:222942681:222942782:+|3pUTR|ENSG00000123983|msi1|FALSE|unique (ssRNA)
RNA: GGGAGUUCUACAGUCCGACGAUCAAAAUUAGUGUUUUUCCUAGUUUGCACUGAUGCGUGUAUGGAUGUGUGUGAGUCAGUGGUAGCUUAUUUAAAAAGCACCUUAUCCUUUCUCCCAUAACCUUUGUACACUAAAAAAUGAAACAACAGAGGAUUGAGCAUCA
B9: chr6:43570573:43570674:-|CDS|ENSG00000124571|unk|FALSE|unique (ssRNA)
RNA: GGGAGUUCUACAGUCCGACGAUCGGUGUAGGAAACACAGACAGAAUUGGUGAUGUUUAUCCUUUUGCGACUGGCAGAGGAUGUAGUGACUUUUCAGACACUUCCCCCUCAAAGAAGAAGGGACAUCCAGCAAACAUUAACCCACAACAGAGGAUUGAGCAUCA
B10: chr11:83166318:83166419:+|CDS|ENSG00000165494|unk|total|mutant (ssRNA)
RNA: GGGAGUUCUACAGUCCGACGAUCGGGACAAAACCAGGGAGAUCGAGUACCCGAAAGCGAUCAAGAUCUCGAUCACCCAAGUCCCGGUCACCAAUUAUACAUUCCCCAAAGAGAAGAGACCGGCGGUCACCCAAACGAAGGCAACAACAGAGGAUUGAGCAUCA
B11: ENSG00000198589:be:win_301|CDS|ENSG00000198589|bound_else_gene|NA|bound_elsewhere_windowed (ssRNA)
RNA: GGGAGUUCUACAGUCCGACGAUCAAAUGUGACAUUACGUGCCAAGCAGAAGUCUGGAGCAUGUUUACAGCCAUUCUGAAGAAAAGCAUACGGAAUCUUCAAGUCUGCACUGAAGUAGGCCUUGUUGAAAAAGUGCUUGGGAAACAACAGAGGAUUGAGCAUCA
B12: chr14:88620753:88620926:-|CDS|ENSG00000165521|control|control|control (ssRNA)
RNA: GGGAGUUCUACAGUCCGACGAUCCAGCCCUGAAGGGGACAUGGUGGCUAUUGGAAUGAAAAAUGGAGAAUUUAUCAUUUUACUAGUGAGUUCUCUAAAAAUAUGGGGAAAGAAGAGAGACAGGAGAUGUGCAAUCCAUGAUAUCAACAGAGGAUUGAGCAUCA
B13: chr5:154817497:154817598:+|3pUTR|ENSG00000155506|msi1_unk|total|mutant (ssRNA)
RNA: GGGAGUUCUACAGUCCGACGAUCUUAUUGAGAGUAUCUGCUUUCCAGGCUGAAGUGAUUCAUUCAUUAUUCCCGUCCUGCUUCCGUCCUUUGUAAUUUGUGGUAAUUAUGCUUUUCUUUUUAAUACAAAAAAAUGUAUAAAAACAACAGAGGAUUGAGCAUCA
B14: chr19:53069209:53069329:-|CDS|ENSG00000170949|unk|FALSE|unique (ssRNA)
RNA: GGGAGUUCUACAGUCCGACGAUCUGGAGAGAAACCUUACAAGUGCAAUGAGUGCGGCAAAGCCUUUAGUGUUCGUUCAAGCCUAGCAAUCCAUCAGACAAUCCACACUGGAGAAAAACCUUACAAAUGUAAUGAAUGUGGCAACAACAGAGGAUUGAGCAUCA
B15: ENSG00000107863:be:win_3501|CDS|ENSG00000107863|bound_else_gene|NA|bound_elsewhere_windowed (ssRNA)
RNA: GGGAGUUCUACAGUCCGACGAUCAUGUUGCAAAUUAGUUGAAGAAAGAGGUCUUGAAUAUACAGGUAUUUAUAGAGUUCCUGGAAAUAAUGCAGCCAUCUCAAGUAUGCAAGAAGAACUCAACAAGGGAAUGGCUGAUAUUGACAACAGAGGAUUGAGCAUCA
B16: chr7:92618090:92618217:-|CDS|ENSG00000105810|unk|total|mutant (ssRNA)
RNA: GGGAGUUCUACAGUCCGACGAUCUAUGUCCAUGUGUGGUUCUUUUGCCGCGUGAUUGGACUCCCAGGAGAAGAAGACUGGCCCCGAGAUGUUGCCCUUCCCAGGCAGGCUUUUCAUUCAAAAUCUGCCCAACCAAUUGAGAAGCAACAGAGGAUUGAGCAUCA
B17: chr1:235182574:235182675:-|CDS|ENSG00000054267|unk|FALSE|unique (ssRNA)
RNA: GGGAGUUCUACAGUCCGACGAUCUUUGACCAACAACAGAAAUGAUCUUAUUUCAAAGGAGGAACAGAACAGUUCAUCUUUGCUAGAAGAAAACAAAGUUCAUGCAGAUUUGGUAAUAUCCAAACCAGUGUCAAAAUCUCCAGACAACAGAGGAUUGAGCAUCA
B18: chr11:69651696:69651723:+|3pUTR|ENSG00000110092|msi1_unk|FALSE|overlapping (ssRNA)
RNA: GGGAGUUCUACAGUCCGACGAUCGAGGAUUAGGUUCCAUCCUUUACGUGUUUAAAAAAAAGCAUAAAAACAUUUUAAAAACAUAGAAAAAUUCAGCAAACCAUUUUUAAAGUAGAAGAGGGUUUUAGGUAGAAAAACAUAUUCCAACAGAGGAUUGAGCAUCA
B19: chr7:158734047:158734148:-|3pUTR|ENSG00000117868|msi1_unk|total|mutant (ssRNA)
RNA: GGGAGUUCUACAGUCCGACGAUCCUACCCGGAACACACCCUCUCACAGACGUACCAAUGUUAUUUUUAUAAUUUCAUGGAUUCCGUUAUACAUACCUUAACCGUUUUAUAAAAUUGUUGACAUUUCAGGCAAAUUUGGCCAAUCAACAGAGGAUUGAGCAUCA
B20: chr19:7926739:7926850:-|3pUTR|ENSG00000104980|unk|FALSE|unique (ssRNA)
RNA: GGGAGUUCUACAGUCCGACGAUCAGGGUGGGACCCGGGACCCGCGGCUCAGUGGCCCGCUAGCCACGUCAGCCAAGCCACUUUAGGUCCAUUUUUUAAUUUUAACAGUGCUCUUCCAUCUUGUGCAUAAGCCUGAGAUUUGGACAACAGAGGAUUGAGCAUCA
B21: chr3:50299934:50300035:-|3pUTR|ENSG00000114378|unk|FALSE|unique (ssRNA)
RNA: GGGAGUUCUACAGUCCGACGAUCCGUUGCCCAAGGUUGCACAGCAAGAAAAGGGAGAAGUUGAGAUUCAAACCCAGGCUGUCUAGCUCCGGGGGUACAGCCCUUGCACUCCUACUGAGUUUGUGGUAACCAGCCCUGCACGACCAACAGAGGAUUGAGCAUCA
B22: ENSG00000107863:be:win_3301|CDS|ENSG00000107863|bound_else_gene|NA|bound_elsewhere_windowed (ssRNA)
RNA: GGGAGUUCUACAGUCCGACGAUCAAGGAAGAGUCGGAAAGGAAACUUCUCAGUAAAGAUGAUACCAGUCCCCCAAAAGACAAAGGCACAUGGAGAAAAGGCAUUCCAAGUAUCAUGAGAAAGACAUUUGAGAAAAAGCCAACUCAACAGAGGAUUGAGCAUCA

What follows are binders tested against MSI1 full-length (mouse, UniProt Q61474 1-362) (assay: nsRBNS (natural sequence RNA bind-n-seq); RBNS binding buffer (assumed for nsRBNS): 25 mM Tris pH 7.5, 150 mM KCl, 3 mM MgCl2, 0.01% Triton X-100, 500 ug/ml BSA, 20 U/ml SUPERase-In, 4 C; UNK is unkempt and MSI1 is Musashi-1; names of the RNAs are library labels; protein concentration not given here; high values mean tight binding).
Sequence of UniProt Q61474 (Q61474 whole entry): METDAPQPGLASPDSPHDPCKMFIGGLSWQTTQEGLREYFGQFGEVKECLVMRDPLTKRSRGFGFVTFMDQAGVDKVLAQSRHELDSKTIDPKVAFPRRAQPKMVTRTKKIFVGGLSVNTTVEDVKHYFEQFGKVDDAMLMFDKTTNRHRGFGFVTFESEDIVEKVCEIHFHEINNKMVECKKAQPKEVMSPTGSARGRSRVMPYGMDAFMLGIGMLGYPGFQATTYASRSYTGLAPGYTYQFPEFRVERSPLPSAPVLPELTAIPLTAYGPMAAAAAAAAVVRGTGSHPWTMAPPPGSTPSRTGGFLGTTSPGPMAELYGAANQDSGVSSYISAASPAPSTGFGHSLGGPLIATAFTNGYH
Work on B1 yielded a binding signal of 0.565 enrichment R. For B2, the binding signal was 0.705 enrichment R. B3 showed a binding signal of 2.98 enrichment R. With B4 the binding signal was 0.417 enrichment R. For B5, the binding signal was 0.745 enrichment R. With B6 the binding signal was 0.467 enrichment R. For B7, the binding signal was 1.89 enrichment R. With B8 the binding signal was 0.719 enrichment R. With B9 the binding signal was 0.397 enrichment R. B10 showed a binding signal of 0.29 enrichment R. B11 showed a binding signal of 0.234 enrichment R. B12 gave a binding signal of 0.549 enrichment R. B13 showed a binding signal of 0.621 enrichment R. B14 gave a binding signal of 0.707 enrichment R. B15 was tested, and the binding signal was 3.14 enrichment R. Binder B16 has a binding signal of 0.406 enrichment R. With B17 the binding signal was 0.21 enrichment R. B18 was tested, and the binding signal was 17.8 enrichment R. B19 showed a binding signal of 0.582 enrichment R. Binder B20 has a binding signal of 0.641 enrichment R. B21 was tested, and the binding signal was 0.373 enrichment R. In the case of B22, the binding signal is reported as 0.359 enrichment R.
